{
  "source": "paper PMC9911399",
  "about": "“Two distinct binding modes provide the RNA-binding protein RbFox with extraordinary sequence specificity”",
  "binders": {"B1": {"name": "GCAGAUA (DNA:RNA)", "RNA": "GGGAGACCGGAAUUCAGAUUGUCCGCAGAUAUUAAAUCCCGUCGUAGCCACCA", "DNA 1": "CAATCTGAATTCCGGTCTCCC", "DNA 2": "TGGTGGCTACGACGGGATT"}, "B2": {"name": "CAACGUA (DNA:RNA)", "RNA": "B1 RNA with G25C, C26A, G28C, A29G", "DNA 1": "CAATCTGAATTCCGGTCTCCC", "DNA 2": "TGGTGGCTACGACGGGATT"}, "B3": {"name": "UCGACAA (DNA:RNA)", "RNA": "B1 RNA with G25U, A27G, G28A, A29C, U30A", "DNA 1": "CAATCTGAATTCCGGTCTCCC", "DNA 2": "TGGTGGCTACGACGGGATT"}, "B4": {"name": "UUGCUAG (DNA:RNA)", "RNA": "GGGAGACCGGAAUUCAGAUUGUCCUUGCUAGUUAAAUCCCGUCGUAGCCACCA", "DNA 1": "CAATCTGAATTCCGGTCTCCC", "DNA 2": "TGGTGGCTACGACGGGATT"}, "B5": {"name": "CCAUUAG (DNA:RNA)", "RNA": "B4 RNA with U25C, U26C, G27A, C28U", "DNA 1": "CAATCTGAATTCCGGTCTCCC", "DNA 2": "TGGTGGCTACGACGGGATT"}, "B6": {"name": "CCUCGUG (DNA:RNA)", "RNA": "B1 RNA with G25C, A27U, G28C, A29G, A31G", "DNA 1": "CAATCTGAATTCCGGTCTCCC", "DNA 2": "TGGTGGCTACGACGGGATT"}, "B7": {"name": "CGCCCAG (DNA:RNA)", "RNA": "B4 RNA with U25C, U26G, G27C, U29C", "DNA 1": "CAATCTGAATTCCGGTCTCCC", "DNA 2": "TGGTGGCTACGACGGGATT"}, "B8": {"name": "CUACCUU (DNA:RNA)", "RNA": "B1 RNA with G25C, C26U, G28C, A29C, A31U", "DNA 1": "CAATCTGAATTCCGGTCTCCC", "DNA 2": "TGGTGGCTACGACGGGATT"}, "B9": {"name": "AUCCAAG (DNA:RNA)", "RNA": "B4 RNA with U25A, G27C, U29A", "DNA 1": "CAATCTGAATTCCGGTCTCCC", "DNA 2": "TGGTGGCTACGACGGGATT"}},
  "note": "Positions count from the first letter of the chain named. The list shows a part of the results.",
  "data": [
    {"target": "T1, RBFOX1 RRM (Homo sapiens, UniProt Q9NWB1 109-208)", "T1 sequence": "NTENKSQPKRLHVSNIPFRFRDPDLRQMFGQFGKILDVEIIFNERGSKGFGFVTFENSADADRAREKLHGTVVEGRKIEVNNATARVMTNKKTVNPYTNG", "experiment": "EMSA; HiTS-Eq, 1 nM pool, 10 min; buffer printed only for the single-RNA assays: 10 mM Tris pH 7.5, 150 mM NaCl, 3.4 mM EDTA, 0.001% NP-40, 30 C", "details": "tags: His6 N-terminal (pET28a); label: 5' 32P", "method_in_brief": "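Purified RbFox RRM (wild type or mutant) was equilibrated for 10 min in 50 µL with 1 nM of a 5′-radiolabelled pool of RNA with 7 randomized nucleotides, its flanks annealed to DNA oligonucleotides, across increasing protein concentrations. Free RNA was separated by 8% native PAGE, excised, reverse-transcribed, PCR-barcoded and sequenced on an Illumina HiSeq 2500. Relative association constants came from read-count changes of each variant against the control reaction, normalised to the cognate motif.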", "values": [
      {"binder": "B1", "binding signal": "0.007 KA relative to UGCAUGU"},
      {"binder": "B2", "binding signal": "0.000893 KA relative to UGCAUGU"},
      {"binder": "B3", "binding signal": "0.00395 KA relative to UGCAUGU"},
      {"binder": "B4", "binding signal": "0.0399 KA relative to UGCAUGU"},
      {"binder": "B5", "binding signal": "0.00313 KA relative to UGCAUGU"},
      {"binder": "B6", "binding signal": "0.0157 KA relative to UGCAUGU"},
      {"binder": "B7", "binding signal": "0.00592 KA relative to UGCAUGU"},
      {"binder": "B8", "binding signal": "0.00302 KA relative to UGCAUGU"},
      {"binder": "B9", "binding signal": "0.000223 KA relative to UGCAUGU"}
    ]}
  ]
}
